Hit rate of the full screen: of about 390,000 compounds, about 1,400 (0.36%) were called active. The inconclusive results got no clear call from the source; some entries with a clear call stand among them for comparison. Calls come from the whole dose curve; as a rule, active = well fitted inhibition curve with a large enough effect; inconclusive = small, poorly fitted or top-dose-only effect; inactive = no such curve, though single readings can be large or run the other way. A potency beside an inconclusive call is a rough fit, not a confirmed value.
The compounds below were run against Flap endonuclease 1 (Homo sapiens) (UniProt P39748) (assay: qHTS Assay for the Inhibitors of Human Flap endonuclease 1 (FEN1).). Conditions: Recombinant FEN1 flap cleavage, fluorescence, 15 min; series mostly up to 114 µM.
UniProt P39748, sequence (P39748 whole entry, looked up): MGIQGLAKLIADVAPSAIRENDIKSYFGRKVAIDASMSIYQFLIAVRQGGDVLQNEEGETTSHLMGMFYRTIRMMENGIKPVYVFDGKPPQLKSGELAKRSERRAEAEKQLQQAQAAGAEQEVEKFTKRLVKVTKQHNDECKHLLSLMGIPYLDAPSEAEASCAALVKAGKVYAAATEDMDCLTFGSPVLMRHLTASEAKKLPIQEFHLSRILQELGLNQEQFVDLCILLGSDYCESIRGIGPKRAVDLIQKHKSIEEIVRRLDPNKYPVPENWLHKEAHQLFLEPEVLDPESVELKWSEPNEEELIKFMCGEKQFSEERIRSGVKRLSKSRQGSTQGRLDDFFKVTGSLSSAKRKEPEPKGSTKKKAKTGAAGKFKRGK
Summary of the method: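 Recombinant FEN1 (10 nM) was preincubated with pin-transferred compounds for 15 min at room temperature, then flap DNA substrate (50 nM final) was added. Plates were read at 0 and 15 min, and normalized concentration–response data were fitted to a four-parameter Hill equation.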
For `Cc1cc(N2CCN(c3cc(Cl)ccc3C)CC2)n2nc(-c3ccccc3)nc2n1`, the Potency was inconclusive: 100 µM [inhibitor, single point].
`O=C(COc1ccc(Br)cc1)NCC1COc2ccccc2O1` (stereo unspecified) was tested, and the Potency was inconclusive: 70.8 µM [inhibitor, partial curve].
In the case of `N#Cc1c(=O)c2nc(NCCCO)ncc2n2c(=O)c3ccccc3[nH]c12`, the Potency is reported as inconclusive: 50.1 µM [inhibitor, partial curve, poor fit].
With `Cc1cccc(C)c1NC(=O)CCC(=O)N1Cc2ccccc2Oc2ncccc21` the Potency was “inactive”.
`Cc1ccc(S(=O)(=O)N2CCc3ccccc3C2CN2C(=O)c3ccccc3C2=O)cc1` (stereo unspecified) was tested, and the Potency was “inactive”.
With `CCOC(=O)c1cnc2ccc(OC)cc2c1Nc1cccc(C(C)=O)c1` the Potency was inconclusive: 79.4 µM [inhibitor, partial curve].
With `O=C(c1ccc(NC2=NC3CS(=O)(=O)CC3S2)cc1)N1CCN(c2ccccc2F)CC1` (stereo unspecified) the Potency was inconclusive: 100 µM [inhibitor, partial curve, poor fit].
With `Cc1onc(-c2ccccc2)c1C(=O)Nc1sc2c(c1C#N)CCC2` the Potency was inconclusive: 89.1 µM [inhibitor, partial curve, poor fit].
With `OCCN1CCN(c2ncnc3c2sc2nc(N4CCOCC4)c4c(c23)CCC4)CC1` the Potency was inconclusive: 89.1 µM [inhibitor, single point].
With `Nc1ccc2c(c1)C(=O)C(=O)c1ccccc1-2` the Potency was inconclusive: 28.2 µM [inhibitor, partial curve, poor fit].
With `CCN(CC)C(=O)CCCSc1nnc(Nc2ccccc2F)s1` the Potency was “inactive”.
With `Cc1ccc(S(=O)(=O)Nc2ccc(NC(=O)c3cccs3)cc2)cc1` the Potency was “inactive”.
For `COc1ccc(NC(=O)CCCN2C(=O)CCn3nc(-c4cn(C)c5ccccc45)cc32)cc1`, the Potency was “inactive”.
In the case of `Cc1ccc(C)c(S(=O)(=O)Nc2ccc3oc(C)c(C(=O)O)c3c2)c1`, the Potency is reported as inconclusive: 44.7 µM [inhibitor, partial curve, poor fit].
`CCOC(=O)c1c(NC(=O)CSc2nc3cccnc3n2C)sc(C(C)=O)c1C` was tested, and the Potency was inconclusive: 10 µM [inhibitor, partial curve, poor fit].
In the case of `Cc1ccc(NC(=O)CSc2nc3ccccc3c3nc(CCc4c(C)n[nH]c4C)nn23)cc1F`, the Potency is reported as “inactive”.
With `COc1cc(NC(=O)c2cc(-c3cccc(OC)c3)n[nH]2)cc(OC)c1` the Potency was inconclusive: 3.98 µM [inhibitor, partial curve, poor fit].
For `CN(C)c1ccc(C2CC(=O)OC3=C2C(=O)CC(C)(C)C3)cc1` (stereo unspecified), the Potency was inconclusive: 56.2 µM [inhibitor, partial curve, poor fit].
For `CCOc1ccc(-n2c(SCC(=O)Nc3ccc(CC)cc3)nc3c(oc4ccccc43)c2=O)cc1`, the Potency was “inactive”.
`N#CCC(=O)Nc1ccc(C(=O)OCc2ccccc2Oc2ccccc2)cc1` was tested, and the Potency was inconclusive: 89.1 µM [inhibitor, partial curve, poor fit].
With `CCS(=O)(=O)Nc1cccc(-c2ccc3nnc(-c4cccnc4)n3n2)c1` the Potency was inconclusive: 22.4 µM [inhibitor, partial curve, poor fit].
With `COc1ccc(N(C(=O)c2ccc(C(C)(C)C)cc2)S(=O)(=O)c2ccc(Cl)cc2)cc1` the Potency was inconclusive: 100 µM [inhibitor, partial curve, poor fit].
In the case of `CCN1C(=O)c2ccccc2Sc2ccc(NC(=O)Nc3cccc([N+](=O)[O-])c3C)cc21`, the Potency is reported as “inactive”.
In the case of `O=S(=O)(Nc1cc(Sc2cccc3cccnc23)c(O)c2ccccc12)c1ccc(F)cc1`, the Potency is reported as inconclusive: 79.4 µM [inhibitor, partial curve, poor fit].
For `O=C(NCCCN1CCN(c2cccc(Cl)c2)CC1)c1cnn(-c2ccc(F)cc2)c1-n1cccc1`, the Potency was inconclusive: 70.8 µM [inhibitor, partial curve, poor fit].
`N#Cc1c(-c2ccccc2)nc(SCc2cccc(C(F)(F)F)c2)[nH]c1=O` was tested, and the Potency was inconclusive: 39.8 µM [inhibitor, single point].
`Cc1cc(C)c2c(N)c(C(=O)c3ccccc3)oc2n1` was tested, and the Potency was inconclusive: 25.1 µM [inhibitor, partial curve, poor fit].
For `Cc1nc(-c2ccc(S(=O)(=O)NCC3CCN(C(=O)OC(C)(C)C)CC3)s2)cs1`, the Potency was inconclusive: 79.4 µM [inhibitor, partial curve, poor fit].
With `COc1cccc(NC(=O)CN(C)C(=O)c2cccnc2Nc2cccc(C(F)(F)F)c2)c1` the Potency was inconclusive: 17.8 µM [inhibitor, partial curve, poor fit].
In the case of `Cc1ccc(N2NC(=O)/C(=C/c3ccc(-c4ccc(Cl)c(C(=O)O)c4)o3)C2=O)cc1C`, the Potency is reported as “inactive”.
With `CCOC(=O)c1c(CNCCN(CC)CC)n(C)c2cc(Br)c(OC)cc12` the Potency was inconclusive: 89.1 µM [inhibitor, partial curve, poor fit].
`CCNC(=S)Nc1ccc(N(c2ccccc2)C(C)C)cc1` was tested, and the Potency was inconclusive: 89.1 µM [inhibitor, partial curve, poor fit].
In the case of `Cc1cc(C)c2c(=O)[nH]c(SCc3ccc([N+](=O)[O-])cc3)nc2n1`, the Potency is reported as inconclusive: 79.4 µM [inhibitor, partial curve, poor fit].
`CCc1ccccc1N1CC(c2nc3ccccc3n2CCCOc2ccc(Cl)cc2)CC1=O` (stereo unspecified) was tested, and the Potency was inconclusive: 89.1 µM [inhibitor, partial curve, poor fit].
With `O=C(N/N=C/C(Cl)=C/c1ccc([N+](=O)[O-])cc1)C(=O)Nc1ccccc1C(=O)O` the Potency was inconclusive: 56.2 µM [inhibitor, partial curve].
`COc1ccc(Cl)c2sc(N3CCN(C(=O)c4ccco4)CC3)nc12` was tested, and the Potency was “inactive”.
In the case of `CN(C)c1ccc2cc(S(=O)(=O)O)cc(O)c2c1`, the Potency is reported as active: 50.1 µM.
With `CN(C)CCCNc1nc(-c2ccc(Cl)cc2)nc2ccccc12` the Potency was inconclusive: 44.7 µM [inhibitor, partial curve].
With `COc1ccc(N=C2NC(=O)/C(=C/c3ccc(O)c(OC)c3)S2)cc1` the Potency was inconclusive: 44.7 µM [inhibitor, partial curve].
In the case of `COCc1cc(C)nc(SCc2ccc(Cl)cc2)c1C#N`, the Potency is reported as inconclusive: 56.2 µM [inhibitor, partial curve, poor fit].
For `O=C(N/N=C/c1ccc([N+](=O)[O-])o1)c1ccc(NS(=O)(=O)c2cccs2)cc1`, the Potency was inconclusive: 50.1 µM [inhibitor, partial curve, poor fit].
With `C#CCN(Cc1ccc(OC)cc1)S(=O)(=O)C=C` the Potency was “inactive”.
For `Cc1cnc2ccc3ccccc3c2c1C`, the Potency was inconclusive: 50.1 µM [inhibitor, partial curve, poor fit].
For `CCN(CC)c1ccc(NC(=O)COc2ccccc2C#N)cc1S(=O)(=O)Nc1ccccc1OC`, the Potency was “inactive”.
For `Cc1ccc2nc3c(c(C(=O)O)c2c1)CCC3`, the Potency was inconclusive: 39.8 µM [inhibitor, single point].
For `O=C(CCN1C(=O)/C(=C/c2ccccc2Cl)SC1=S)Nc1ccccc1C(=O)O`, the Potency was “inactive”.
`C#CCSc1nsc(SCC#C)c1C#N` was tested, and the Potency was inconclusive: 44.7 µM [inhibitor, partial curve, poor fit].
`FC(F)(F)C1CCCN(c2nsc3ccccc23)C1` (stereo unspecified) was tested, and the Potency was inconclusive: 89.1 µM [inhibitor, single point].
`COc1ccc(C)cc1C1=CC(=O)C[C@H](c2ccc(F)cc2)C1` was tested, and the Potency was inconclusive: 89.1 µM [inhibitor, partial curve, poor fit].
`CC(C)(C)/C(O)=C/c1nc2cc(Cl)ccc2oc1=O` was tested, and the Potency was active: 28.2 µM.
With `O=C1SC(SCc2ccccc2)=N/C1=C\c1ccco1` the Potency was inconclusive: 79.4 µM [inhibitor, partial curve].
In the case of `O=C(NC1CCCCCC1)c1ccc[nH]c1=S`, the Potency is reported as “inactive”.
With `COc1ccc(OC)c(S(=O)(=O)NCCc2sc(-c3ccc(C)cc3)nc2C)c1` the Potency was “inactive”.
For `COc1ccc(N2CCN(C(=O)c3ccc(C)c(NC(=O)c4nsc5ccccc45)c3)CC2)cc1`, the Potency was “inactive”.
`CCCCNC(=O)c1onc(CSc2ccccc2)c1C(=O)NCCCC` was tested, and the Potency was inconclusive: 56.2 µM [inhibitor, partial curve, poor fit].
With `O=C(NCCNCc1ccccc1)c1ccco1` the Potency was “inactive”.
In the case of `COC(=O)c1c(-c2cccs2)csc1NC(=O)c1ccc(Cl)cc1`, the Potency is reported as inconclusive: 79.4 µM [inhibitor, single point].
With `O=C(Cc1cccs1)Nc1cccc(-c2nc3cc4ccccc4cc3[nH]2)c1` the Potency was inconclusive: 44.7 µM [inhibitor, partial curve, poor fit].
For `Cc1cnc(C(=O)OCC(=O)Nc2ccc(Cl)cn2)cn1`, the Potency was “inactive”.
`CC(=O)Nc1ccc(SC[C@H](Cc2ccccc2)N2CC[C@@H](C(C)(C)C)CCC2=O)cc1` was tested, and the Potency was inconclusive: 50.1 µM [inhibitor, partial curve, poor fit].
In the case of `CCCCN(CC)CCNC(=O)c1cc2c(-c3ccc(Cl)cc3)nn(C)c2s1`, the Potency is reported as active: 44.7 µM.
With `Nc1ccccc1Nc1ccc([N+](=O)[O-])cc1[N+](=O)[O-]` the Potency was “inactive”.
With `COc1cc2c(c3oc(-c4ccccc4)cc(=O)c13)C=CC(C)(C)O2` the Potency was inconclusive: 56.2 µM [inhibitor, partial curve, poor fit].
With `N#C/C(=C/c1ccc([N+](=O)[O-])cc1)C(N)=O` the Potency was “inactive”.
With `N#CC1=C(N)Oc2c(ccc3cccnc23)C1c1ccncc1` (stereo unspecified) the Potency was inconclusive: 79.4 µM [inhibitor, partial curve, poor fit].
With `O=C(O)COc1ccccc1/C=C1\SC(=S)N(NC(=O)c2ccccc2O)C1=O` the Potency was inconclusive: 39.8 µM [inhibitor, full curve, poor fit].

Reference: PubChem BioAssay AID588795 (National Center for Advancing Translational Sciences (NCATS), 2011)
Note: nearly all actives have a fitted effect of over 65% in size.
Potency is the fitted concentration of half-maximal effect; tags give direction and shape of the fitted curve.
